Measured values reported in the supplement of paper PMC10126150.
Values marked as one replicate rest on one cluster of the flow cell; about a third of the high ones do not repeat.

system: ATP; assay: switch fluorescence ratio, 500 uM ATP over buffer (Cy3 cluster intensity, sum of 5 cycles each) (fold (ratio)); higher = stronger signal-on switching upon ATP binding; sequences stand for … in TCGTCGGCAGCGTCAGATGTGTATAAGAGACAGTTTTTTTTTTTTTTTTTTTTTTTTT…TC; conditions: aptamer strand: ATP DNA aptamer (quencher-CACCTGGGGGAGTATTGCGGAGGAAGG + anchor), 100 nM annealed; ATP concentration: 500 uM; one replicate
How it was run: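 Per cluster, summed Cy3 intensity from the target cycles was divided by that from the buffer cycles to give the fluorescence ratio, then averaged per switch-domain sequence. Clusters outside 100-1000 RFU were excluded. The Cy3-labelled switching-strand clusters, on a modified Illumina MiSeq flow-cell, were annealed to 100 nM quencher-labelled ATP aptamer and imaged in selection buffer, then after 15 min with 500 uM ATP at 22 °C, for five cycles with NaOH stripping and re-annealing between them.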
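Also: ATP exposure 15 min at 22 °C before imaging.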

| Sequence | switch fluorescence ratio |
| --- | --- |
| CGTTATAACA | 1 |
| AGACGTGGAG | 0.986 |
| CTTTATTTA | 1.03 |
| CACTAGGGGC | 1.15 |
| GACAGGATGT | 0.963 |
| GAGGGAATTG | 1.03 |
| ATAAAAGGGC | 0.984 |
| TTGTTGCAAT | 1.15 |
| TGACCCATTA | 1.02 |
| GGTCACGACG | 0.984 |
| AAGGCGTCTT | 1.01 |
| GGCGTCATTT | 0.992 |
| ACCTTCGGTT | 1.02 |
| ACCATTTGCT | 0.996 |
| CTGGGTTCGT | 0.976 |
| TAAATCTTAG | 0.947 |
| GCGTTGACTG | 1.07 |
| GACTAGACTC | 1.05 |
| AGATTTGGAC | 1.02 |
| GCGGCTAATA | 1.02 |
| TCAAATACAA | 1 |
| TGACCAGGCG | 1.16 |
| GATCTTCGGG | 0.986 |

| Sequence | switch fluorescence ratio |
| --- | --- |
| GGAAGTATCC | 1.04 |
| AGATCAAATG | 1.01 |
| CCTCCACCGG | 2.63 |
| ACCCTCCTAT | 1.04 |
| GGAAAACTTC | 1.03 |
| TGTTAAGTGA | 1.02 |
| CGAGTCAGGA | 1.03 |
| CGACTGTGGC | 1.01 |
| AGGATTACAG | 1.05 |
| CCTTACATG | 1.01 |
| CGGGGCTCGG | 1.02 |
| TGTAATCAAC | 0.993 |
| TCGAGGTCCG | 0.919 |
| AGCAGAATAC | 4.48 |
| TAAGGGGCCT | 1 |
| CAAGGTATTC | 0.978 |
| TCAATGCGGC | 0.965 |
| CCTCATTTAA | 1.09 |
| AATTACGCAT | 1.26 |
| CTTGGTAAAA | 1.04 |
| AGCTCTACAA | 1.12 |
| GCTACTTCC | 2.22 |
| CATTGGGGTG | 1.02 |

| Sequence | switch fluorescence ratio |
| --- | --- |
| ACTTGTTACA | 1.05 |
| GGAGGGGAGA | 0.985 |
| ATGATCTAAT | 0.964 |
| TATAAAGAAG | 1.03 |
| TCATTAAAAG | 1.01 |
| AGGGTCCCTC | 1.01 |
| GCGATCATAG | 1.02 |
| GGCAGCCCTG | 1.03 |
| GCATTAGTCT | 0.993 |
| TTTCTGATCG | 1.38 |
| GCAGCTGGAT | 0.971 |
| ATAGTCACAA | 1.01 |
| AAACGTGCTT | 1.03 |
| GCCTAGGAGC | 1.07 |
| GGCATATTTT | 0.976 |
| AGATGGTTGA | 1.01 |
| GTGCCCTGGA | 1.02 |
| GAATACATTT | 1.01 |
| ATAGGATAGG | 0.97 |
| ACACTGCAAT | 4.93 |
| GGGTGATTAC | 0.989 |
| CGCGCGGTTG | 1.05 |
| TGTC | 0.993 |

| Sequence | switch fluorescence ratio |
| --- | --- |
| TTGGACAGCT | 1.01 |
| CTGCTCGA | 1.03 |
| TTCGTGCAGT | 1.03 |
| CTTTATGTTA | 1 |
| TTACGTCCGC | 1.38 |
| GTTTCCTACA | 0.998 |
| CACGCCGTAG | 0.999 |
| GGGCGCTACT | 1.04 |
| TACCAAAGGA | 1.02 |
| GTAGCCAGGA | 0.995 |
| GCTATCTAGT | 0.986 |
| TCTATGAGTT | 0.98 |
| GTGAGCGCCA | 0.972 |
| GGCGCGGGGC | 1.05 |
| TTTTCCGT | 1.01 |
| TTCACCCGTA | 1.06 |
| ACCAAACGCC | 1.19 |
| TTCGTTCAT | 0.971 |
| CGGTATGCGG | 0.946 |
| TGGTATCAC | 0.987 |
| AAGAGATGGG | 1 |
| TCAAAAAGTA | 0.992 |
| GGCAGGTTGC | 0.986 |

| Sequence | switch fluorescence ratio |
| --- | --- |
| ATAAGTACGT | 1.29 |
| GGTCCCTCTT | 1.03 |
| AGGTGTCCAT | 1 |
| ACGGCCGCGG | 1.03 |
| AAGGCAGTAT | 1.02 |
| GCAATCTCGC | 2.81 |
| ATGCGGTACT | 1.07 |
| TGTCATGGCA | 0.991 |
| TTTGAGATGA | 1.05 |
| GGGGTTTCG | 0.987 |
| CGGTGGTTAG | 1.02 |
| AGTCTTCTC | 1.1 |
| ATGTCAGTAG | 1.02 |
| GATAGTCGAT | 0.983 |
| ATCATGCTTT | 0.998 |
| CATGATG | 0.978 |
| CATTTGTGG | 0.991 |
| ATCTTTCTGT | 0.979 |
| TAGCTGTCGG | 1 |
| TGCAGGTCGG | 0.951 |
| GGTAGACGTT | 1 |
| TCATGAGTCT | 0.979 |
| GGCTAACGCA | 1.05 |

| Sequence | switch fluorescence ratio |
| --- | --- |
| GCAGTGGATC | 0.991 |
| CGAGTAGTCC | 1 |
| ATTTTGTGC | 0.984 |
| GGCGGATGCA | 0.988 |
| CGAAATGAAG | 0.988 |
| AGACGGATGT | 0.992 |
| CTTGTTCAG | 1.01 |
| ATACGATAGG | 1.05 |
| AATTGGCTAT | 1.01 |
| AGCAAAGCAT | 1.03 |
| GTGGAGGGAG | 0.985 |
| CAGCTGCGAA | 1.1 |
| GAATATTTGG | 1.01 |
| CCCCCGATGA | 1.52 |
| GTCCTCTGGA | 0.996 |
| AATGCTTATG | 1.06 |
| TGCCTAAGGT | 0.999 |
| TTACGGGCCT | 1.07 |
| GAAACTTAGT | 0.995 |
| TACCTACGGC | 1.43 |
| GATAGACTC | 1.03 |
| CCCTAGCCGC | 1.6 |
| AGTTAAGCAA | 1.49 |

| Sequence | switch fluorescence ratio |
| --- | --- |
| CTAGATATGG | 1.05 |
| GTTGTTATTC | 0.95 |
| CCGTCCTCGC | 1.85 |
| ACAAACTATG | 1.11 |
| TTTCAAATGA | 1.16 |
| TTTTAAGACT | 0.983 |
| TATGAGTCCT | 0.959 |
| GCATTGTATT | 0.964 |
| GGGAGATACT | 1.01 |
| GCTGGTCTGT | 1.04 |
| TAGAATATAC | 1.11 |
| TATACAGTGG | 1.07 |
| GGATCGCAGG | 0.994 |
| AGGTGTTGTG | 0.99 |
| ACCATGAGTA | 0.966 |
| CATTCTTGTT | 1.03 |
| GCATTGGCTT | 0.98 |
| AGTCTCTAAT | 0.992 |
| GTGCATGAAC | 1.05 |
| CGACCAGGCG | 1.24 |
